The record followed here is the RNAGym collection of RNA variant scans (doi:10.7554/elife.90254).

B1: LINE1-mini (parent)
chain: GGCAGAGCUCAACACAGCGUGGCAAAGUGGCUGUGGCUAGACUGCC

The source gives no read counts; variants with many changes may rest on few reads.

Variants of B1 are the subject of the data set. Nature of the data set: self-cleavage, relative activity (ratio to wild type); higher = more cleavage; in vitro, sequencing; the parent is a self-cleaving ribozyme.
Consider U32C G36A U43A, for which the self-cleavage stood at 0.11.

Take U32C U38G G40C: the self-cleavage was 0.23.

Take C31G G33U U43C C45U: the self-cleavage was determined as 0.18.

For the variant G33U A41G C46U, the self-cleavage came to 0.02.

Turning to U32G C37A G40C, the self-cleavage was 0.03.

With C31G U38C C46A, the self-cleavage was 0.03.

In the case of G33U C42A C45A, the self-cleavage was determined as 0.03.

For the variant G33C A41C C45U, the self-cleavage amounted to 0.01.

Take C31U G36U A41U: the self-cleavage is 0.02.

Take C31G A39U C42U: the self-cleavage turned out to be 0.08.

In the case of G33U U34A G35U C42A, the self-cleavage was 0.03.

As to U32A A41U G44U C45G, the self-cleavage stood at 0.63.

On to C31G G33U C37A G40A, for which the self-cleavage was 0.02.

Turning to U32A U34C G36A, the self-cleavage is 0.01.

In the case of U32A G36C C37A, the self-cleavage was 0.14.

For the variant C31G A39G C42G, the self-cleavage is 0.03.

As for U32A C37A U43A C46U, the self-cleavage was found to be 0.01.

Regarding C31A U38G G44A, the self-cleavage amounted to 0.02.

In the case of G33C G36C C42G, the self-cleavage turned out to be 0.02.

Consider C31U C37G C42U, for which the self-cleavage worked out at 0.07.

Take U32G C45U C46U: the self-cleavage turned out to be 0.06.

As for U32G C45U C46G, the self-cleavage was determined as 0.

As to C31G U34A C45U, the self-cleavage amounted to 0.02.

Take G33A G35U G36A: the self-cleavage is 0.13.

With C31G A39C A41C C42U, the self-cleavage is 0.04.

Regarding G33A G36U A41U C45G, the self-cleavage turned out to be 0.03.

As for G33U G36U C37A U38A, the self-cleavage was 0.06.

Regarding U32G G36C A39U C42G, the self-cleavage was determined as 0.03.

For the variant U32A C37A A41G, the self-cleavage is 0.

In the case of G33C U34A A39U, the self-cleavage came out at 0.03.

Turning to U34A C37U C42U, the self-cleavage amounted to 0.06.

In the case of U32A C42G C46U, the self-cleavage was determined as 0.

Take C31A U43A G44C: the self-cleavage turned out to be 0.02.

As for U32G C37U C46A, the self-cleavage came out at 0.04.

For U32C G33C C46A, the self-cleavage was 0.05.

For C31G C42A C46G, the self-cleavage came out at 0.04.

Consider C31G C45A C46G, for which the self-cleavage stood at 0.03.

For U32C A41C C42A, the self-cleavage turned out to be 0.05.

As to G33U A39U A41G, the self-cleavage worked out at 0.12.

On to U32A G40A C46A, for which the self-cleavage was 0.

As for G33A A39U C45U, the self-cleavage stood at 0.04.

Take G33U U34C A41U: the self-cleavage amounted to 0.02.

Turning to G33A G36C A39G, the self-cleavage stood at 0.08.

As to C31U C37A A39C, the self-cleavage was 0.06.

With G33U G40U G44U, the self-cleavage was found to be 0.13.

In the case of G33U G35U U43G, the self-cleavage turned out to be 0.

On to C31G G33A G35C C45U, for which the self-cleavage came out at 0.

With G33C C42U U43G, the self-cleavage is 0.03.

Turning to G33C U38A C45A, the self-cleavage was 0.01.

Regarding G33A C37U U38G, the self-cleavage turned out to be 0.02.

For U32C G33U C42A, the self-cleavage is 0.06.

For C31A G40C G44U, the self-cleavage was 0.03.

Consider G33A G36A A41U, for which the self-cleavage is 0.21.

As to C31U G36C C37U, the self-cleavage worked out at 0.01.

Regarding U32A G44C C46A, the self-cleavage was 0.

On to U32C G36C U38A, for which the self-cleavage was found to be 0.29.

As for U32C G33U G44A, the self-cleavage was determined as 0.1.

Take G33C U38G G40U: the self-cleavage is 0.03.

Take U32C A39G G40C: the self-cleavage is 0.11.

Regarding G33A C42G C46A, the self-cleavage amounted to 0.

For C31A U32C C42A, the self-cleavage amounted to 0.06.

Turning to C31U G35U C46G, the self-cleavage came out at 0.05.

Consider G33A G35A C37A G40A, for which the self-cleavage is 0.02.

Regarding G33U G35A C46A, the self-cleavage was determined as 0.06.

Regarding G33A C37A C45U, the self-cleavage worked out at 0.06.

As to C31A U43G G44C, the self-cleavage is 0.04.

On to C31G U38C G40U C45A, for which the self-cleavage was determined as 0.09.

In the case of U34A A39G G40C, the self-cleavage came out at 0.05.

With C31A G40A A41C, the self-cleavage worked out at 0.05.

With U32G C42G C45U, the self-cleavage came to 0.03.

On to G33A G36A A39G, for which the self-cleavage was determined as 0.05.

As to G33U A39C A41U, the self-cleavage was found to be 0.

Turning to G33U U34A G35U U43C, the self-cleavage was found to be 0.1.

Consider U32C G35A C37U, for which the self-cleavage worked out at 0.03.

For the variant C31A U34G G40A, the self-cleavage was 0.02.

Regarding C31U G33A U34A, the self-cleavage was determined as 0.06.

In the case of G33U G35U C46U, the self-cleavage turned out to be 0.01.

As for G33U U34A U38A, the self-cleavage came to 0.03.

For C31G C37A A41C C46A, the self-cleavage was 0.01.

On to C31A G36A U43A, for which the self-cleavage was 0.12.

As to U32G G40C C46U, the self-cleavage came out at 0.03.

Take U32C G40C G44U: the self-cleavage is 0.06.

For C31G G44C C46U, the self-cleavage turned out to be 0.05.

Take C31U U32C C37A: the self-cleavage was found to be 0.08.

On to G33U C45A C46A, for which the self-cleavage is 0.05.

With C31U G33C U38A, the self-cleavage is 0.08.

For the variant C31U A39G G40U C46A, the self-cleavage amounted to 0.02.

Consider U32C A39C G40A, for which the self-cleavage came to 0.1.

Regarding U32G G36A C37U, the self-cleavage was determined as 0.06.

In the case of U32A U43G G44C C46U, the self-cleavage was 0.02.

On to U32G G33U A41C, for which the self-cleavage was found to be 0.01.

On to C31U U34A G40U, for which the self-cleavage turned out to be 0.01.

For the variant U32C G35C C37A, the self-cleavage is 0.03.

U32C G36C G44U: the self-cleavage amounted to 0.

As to G33U C37A A41G, the self-cleavage stood at 0.08.

For the variant C31G U38C A41C, the self-cleavage came out at 0.03.

Regarding U32C G35A U38C C42G, the self-cleavage stood at 0.07.

As for G33U U38A A41G C42A, the self-cleavage turned out to be 0.09.

Take C31A G44U C45G: the self-cleavage was 0.03.

As for U32G G36U U38C, the self-cleavage turned out to be 0.01.

In the case of G33A U38G C42G, the self-cleavage stood at 0.15.

Consider U32A C37U U43C, for which the self-cleavage was 0.03.

Turning to C31A U32C A39C, the self-cleavage is 0.12.

As to U32A A41G G44U, the self-cleavage worked out at 0.04.

As to G33C C37G C45U, the self-cleavage was determined as 0.02.

U32G G33C G36C: the self-cleavage was determined as 0.09.

For the variant U32C G35C G44A, the self-cleavage stood at 0.02.

Take C31A U32G C42U U43A C45G: the self-cleavage is 0.07.

Take G33C C42G U43A: the self-cleavage came out at 0.03.

Turning to G33C C37U C45G, the self-cleavage stood at 0.02.

For the variant G33C C37U C45A, the self-cleavage is 0.02.

As for G33U A39G A41U, the self-cleavage was determined as 0.05.

G33U C42U C45G: the self-cleavage stood at 0.03.

For the variant G33U C42U C45A, the self-cleavage is 0.02.

On to G33C G40A C46G, for which the self-cleavage was determined as 0.02.

For the variant U32C A39C G44U, the self-cleavage is 0.01.

For the variant C31G C42U C45A, the self-cleavage was 0.12.

With U32G G44A C46G, the self-cleavage was 0.04.

With G33U A39G G40A U43C, the self-cleavage stood at 0.03.

In the case of U32G A41C C42G, the self-cleavage came to 0.03.

For the variant G33A U34G A39U, the self-cleavage was found to be 0.03.

Take G33C G44U C45G: the self-cleavage was determined as 0.01.

For G33C G35A C37G, the self-cleavage amounted to 0.07.

As to C31U A39G G44C, the self-cleavage is 0.01.

In the case of G33U G35C C42G, the self-cleavage is 0.16.

With G33U A41C U43G, the self-cleavage was determined as 0.03.

With C31A U34A G36U, the self-cleavage was found to be 0.01.

As for C31A G36A U38A A39G, the self-cleavage worked out at 0.05.

In the case of C31U U38C A41C, the self-cleavage turned out to be 0.03.

With U32C U38A G44A, the self-cleavage was found to be 0.01.

In the case of C31A G36C C37G, the self-cleavage was determined as 0.03.

With C31A G36C C37A, the self-cleavage was determined as 0.04.

Turning to U32A C37A G40C, the self-cleavage turned out to be 0.09.

Regarding G33U U34C C37G A39U, the self-cleavage turned out to be 0.01.

C31U A41C C46A: the self-cleavage was found to be 0.04.

Consider G33A C37U C45A, for which the self-cleavage amounted to 0.03.

As for C31U G40C C45A, the self-cleavage came out at 0.03.

For the variant U32A G33A G44A, the self-cleavage worked out at 0.07.

C31U G36U C37U C45G: the self-cleavage was determined as 0.02.

With C31G U34C G44A, the self-cleavage stood at 0.04.

Regarding C31U G35A A41U G44A, the self-cleavage came out at 0.

Regarding U32G G36U C45U, the self-cleavage turned out to be 0.03.

With C31G G33U C45A, the self-cleavage was determined as 0.07.

Regarding C31G G35U G40U C45A, the self-cleavage was 0.1.

For G33A G35C C45G, the self-cleavage was found to be 0.02.

With U32G U34A G40U, the self-cleavage is 0.04.

As for C31G U38G G40U, the self-cleavage was determined as 0.

U32A C37A A39G: the self-cleavage came to 0.01.

As to C31U A41C C42G, the self-cleavage was determined as 0.04.

U32A C37A U43A: the self-cleavage came to 0.08.

With C31G C37A C45U, the self-cleavage is 0.

For C31A U34G U43A, the self-cleavage was 0.01.

For the variant U32A C42A C45G, the self-cleavage was found to be 0.04.

As for C31A U32C G40C C45A, the self-cleavage was determined as 0.02.

Take G33U U34C G36C: the self-cleavage turned out to be 0.02.

For the variant C31U U38C G44U, the self-cleavage came out at 0.01.

As for U32C A39G C45U C46G, the self-cleavage was 0.04.

For G33A A41G C42G, the self-cleavage was 0.13.

In the case of C31A G40U U43A, the self-cleavage was 0.2.

Regarding G33U C37A G40C, the self-cleavage was found to be 0.08.

For C31G G35C A41C U43G, the self-cleavage is 0.03.

On to C31G C37U U38G A41C, for which the self-cleavage is 0.01.

In the case of G33A G40C U43C, the self-cleavage was found to be 0.03.

In the case of G33U U38G G44C, the self-cleavage amounted to 0.04.

For U32A G36A C45G, the self-cleavage came out at 0.09.

With C31G G35U C42A, the self-cleavage was 0.02.

For C31U G33A G44A, the self-cleavage was 0.02.
